Screen size: about 290,000 compounds; about 1,000 (0.34%) were called active. The inconclusive results got no clear call from the source; some entries with a clear call stand among them for comparison. Cut-off read from the data, not from the text of the source: active = inhibition above about 50% (passing the limit was not always enough); inconclusive = no clear call, values can overlap the other calls.
target: SUMO-conjugating enzyme UBC9 (Homo sapiens) (UniProt P63279); test: blockers of SAE1/SAE2–UBC9 SUMO transfer – biochemical, HTRF, uHTS, primary screen (AID 2006); conditions: HTRF SUMOylation assay, SAE1/SAE2 + UBC9, in vitro; at 35 µM; stronger effect = higher value
UniProt P63279, sequence (P63279 whole entry, looked up): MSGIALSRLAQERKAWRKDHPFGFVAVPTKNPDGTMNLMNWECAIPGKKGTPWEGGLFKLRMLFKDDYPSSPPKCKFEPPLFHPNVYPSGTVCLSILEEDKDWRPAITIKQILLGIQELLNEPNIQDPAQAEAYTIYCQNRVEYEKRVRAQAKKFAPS

Structure (SMILES)	inhibition
O=C(/C=C/c1ccco1)Nc1cccc(NC(=O)/C=C/c2ccco2)n1	inconclusive: 86.6%
Nc1ccc2nc(-c3ccccc3)[nH]c2c1	inconclusive: 57.5%
COc1ccc2oc(=O)c(-c3nnc(NCc4ccco4)s3)cc2c1	inconclusive: 68.3%
CC(=O)Nc1ccc(Nc2nc3c(S(=O)(=O)c4ccc(C)c(C)c4)nnn3c3ccccc23)cc1	inconclusive: 54.7%
O=c1oc2c3c4c(cc2s1)CCCN4CCC3	active: 77.6%
C/C(=C\c1ccco1)C1Nc2cccc3cccc(c23)N1	inconclusive: 92%
CCOc1ccccc1CN1CCC(n2nccc2NC(=O)C2CCCC2)CC1	inactive: -2.4%
O=S(=O)(O)c1ccc(N2N=C(c3ccccc3)CC2c2ccccc2)cc1 (stereo unspecified)	inconclusive: 64.6%
COc1ccc2[nH]c3c(=O)n(CCCC(=O)NC4CCCCC4C)c(=S)[nH]c3c2c1 (stereo unspecified)	active: 58.4%
O=C1CSC(=S)N1/N=C/c1ccc(O)c(O)c1O	inconclusive: 93.3%
COc1ccc(OC)c(/C=C/C(=O)N2C(=O)c3cccc(N)c3C2=O)c1	inconclusive: 58.9%
CCOC(=O)C1CCN(C(=O)c2cc3c(=O)n4ccccc4nc3n2C)CC1	inconclusive: 60.5%
COc1ccc(-c2nc(-c3ccccc3)nc(N3CCN(C)CC3)c2C#N)cc1	inactive: -41.9%
O=C(Nc1ccc2nc(-c3ccco3)c(-c3ccco3)nc2c1)NC1CC1	inconclusive: 88.9%
CCCn1c(/C=C/c2cc[n+](C)cc2)nc2ccccc21	inconclusive: 74%
Cc1ccnc(NC(=O)Nc2ccc(F)cc2)c1	inactive: 8.4%
COc1ccc(Cn2nnnc2C(C(C)C)N2CCN(c3ccccc3OC)CC2)cc1 (stereo unspecified)	inactive: 3.2%
O=C1Nc2ccc(S(=O)(=O)NCCCO)c3cccc1c23	inconclusive: 54%
Cn1c(C(=O)O)cc2c(=O)n3ccccc3nc21	inconclusive: 63.2%

Structure (SMILES)	inhibition
CN1/C(=C\C=C2/C(=O)Oc3ccccc3C2=O)C(C)(C)c2ccccc21	inactive: 48.5%
COc1ccc(-n2c(Cn3c(=O)sc4ccccc43)nnc2SCC(N)=O)cc1	inactive: 15.8%
c1coc(-c2nc(-c3ccco3)c(-c3ccco3)nc2-c2ccco2)c1	inconclusive: 89.9%
COc1ccc(/C=C/C(=O)c2ccc(C(=O)/C=C/c3ccc(OC)c(OC)c3)cc2)cc1OC	inactive: 29.6%
Cc1ccc(S(=O)(=O)/N=C2\C=C(Nc3cccc(C(=O)O)c3)C(=O)c3ccccc32)cc1	inconclusive: 77.7%
COc1ccc(-c2ccnc(SCC(=O)c3ccc(Cl)cc3)n2)cc1	inconclusive: 58%
N#CC1(NC(=O)COC(=O)CCN=C2NS(=O)(=O)c3ccccc32)CCCCC1	inactive: 2.6%
CCN(CC)CCNC(=O)c1cc2c(s1)-c1ccccc1SC2	inconclusive: 58%
CCCCCCN1C=C/C(=C\C=C(C#N)C#N)c2ccccc21	inactive: 8.8%
O=C(Nc1nnc(-c2ccccc2SCc2ccccc2)s1)Nc1ccccc1F	active: 70%
Cc1ccc(Oc2c(C(N)=O)cc([N+](=O)[O-])cc2[N+](=O)[O-])cc1	inactive: 10.9%
c1ccc(-c2noc(CC3CCCCC3)n2)nc1	inactive: -1%
COc1ccc(-c2cc3ccc(OCC(=O)NCC4CCC(C(=O)O)CC4)cc3oc2=O)cc1 (stereo unspecified)	inconclusive: 73.7%
O=C(O)CSc1cc(C(=O)c2ccccc2O)cn2c(=O)c3c4c(sc3nc12)CCCC4	active: 50.1%
Clc1ccc(/C=N/Nc2ncnc3nc[nH]c23)cc1	inactive: -4.2%
CCN(C(=O)Cc1cccs1)c1nnc(-c2cc(OC)c(OC)c(OC)c2)s1	inactive: -4.3%
Cc1ccc(S(=O)(=O)c2ccc(Cl)cc2)cc1S(=O)(=O)N(C)CC(=O)O	inconclusive: 93.6%
COc1ccc(-c2[nH]c(-c3ccc(C(=O)O)cc3)nc2-c2ccccc2)cc1	inconclusive: 71.6%
O=C(O)Cc1c[nH]c2cccc(O)c12	inconclusive: 76.5%

Structure (SMILES)	inhibition
CN1C(=O)c2cccc3c(S(=O)(=O)N(C)C)ccc1c23	inconclusive: 59.8%
O=C(c1ccc2nc(-c3ccco3)c(-c3ccco3)nc2c1)N1CCN(c2ncccn2)CC1	inconclusive: 73.9%
O=C1Nc2ccc(S(=O)(=O)NCC3CCCO3)c3cccc1c23 (stereo unspecified)	inconclusive: 51.3%
CC1CC(=O)c2c(cc3c(-c4c(O)cc(O)c5c(O)c6c(cc45)OC(C)CC6=O)c(O)cc(O)c3c2O)O1 (stereo unspecified)	inconclusive: 76.6%
CC1CCN(Cc2c(C(=O)N/N=C/c3ccccc3O)nnn2-c2nonc2N)CC1	active: 54.4%
CC(=O)c1c(C)[nH]c(C(=O)OCC(=O)Nc2ccccc2Cl)c1C	inactive: -6.2%
O=C(NCCCn1ccnc1)C1CCCN(S(=O)(=O)c2ccc(F)cc2)C1 (stereo unspecified)	inactive: 21%
CCc1cc(=O)oc2c(C)c(O)c(CN3CCCCC3)cc12	inconclusive: 62.8%
Oc1ccc(Cl)cc1C=Nc1ccc2c3c(cccc13)CC2	active: 57.1%
CCc1cc2c(=O)nc3n(c2s1)Cc1ccccc1/C3=C(/O)c1ccccc1Cl	inconclusive: 72.4%
CCN(CC)c1ccc2c(-c3ccc(S(=O)(=O)O)cc3S(=O)(=O)[O-])c3ccc(=[N+](CC)CC)cc-3oc2c1	inconclusive: 53.8%
CN(C(=S)Nc1ccc(SC(F)F)cc1)c1ccc(O)cc1	inconclusive: 74.2%
O=C(O)c1cc(N2N=C(C(F)(F)F)/C(=C/C=C/c3ccco3)C2=O)ccc1Cl	inconclusive: 82.3%
Cc1c(N=C2C=C(Br)C(=O)C(Br)=C2)c(=O)n(-c2ccccc2)n1C	inconclusive: 96%
Cc1ccc2[nH]c(CNC(=O)c3ccccc3F)cc2c1	inactive: 4.9%
O=C(Nc1cccc(S(=O)(=O)NC2=NCCCCC2)c1)c1cc(-c2ccco2)nc2ccccc12	active: 81.2%
CC1C/C(=N\NC(=S)NCc2ccccc2)CC(C)(C)C1 (stereo unspecified)	inactive: 8.1%
CNC(=O)/C(C#N)=C/c1ccc(-c2ccc(Cl)cc2)o1	inconclusive: 57%

Reference: PubChem BioAssay AID2006 (Sanford-Burnham Center for Chemical Genomics, 2009)
